From PMC4336329 (PLoS ONE, 2015)
The whole screen tested about 310,000 compounds, of which about 2,200 (0.71%) showed an effect of 50% or more. Effects have a minus sign here. The list shows a part of the results.

target: human ether-à-go-go-related gene (hERG) potassium channel (human, UniProt Q12809); assay: primary screen, population patch clamp on CHO cells stably expressing hERG
Sequence (Q12809 whole entry, looked up): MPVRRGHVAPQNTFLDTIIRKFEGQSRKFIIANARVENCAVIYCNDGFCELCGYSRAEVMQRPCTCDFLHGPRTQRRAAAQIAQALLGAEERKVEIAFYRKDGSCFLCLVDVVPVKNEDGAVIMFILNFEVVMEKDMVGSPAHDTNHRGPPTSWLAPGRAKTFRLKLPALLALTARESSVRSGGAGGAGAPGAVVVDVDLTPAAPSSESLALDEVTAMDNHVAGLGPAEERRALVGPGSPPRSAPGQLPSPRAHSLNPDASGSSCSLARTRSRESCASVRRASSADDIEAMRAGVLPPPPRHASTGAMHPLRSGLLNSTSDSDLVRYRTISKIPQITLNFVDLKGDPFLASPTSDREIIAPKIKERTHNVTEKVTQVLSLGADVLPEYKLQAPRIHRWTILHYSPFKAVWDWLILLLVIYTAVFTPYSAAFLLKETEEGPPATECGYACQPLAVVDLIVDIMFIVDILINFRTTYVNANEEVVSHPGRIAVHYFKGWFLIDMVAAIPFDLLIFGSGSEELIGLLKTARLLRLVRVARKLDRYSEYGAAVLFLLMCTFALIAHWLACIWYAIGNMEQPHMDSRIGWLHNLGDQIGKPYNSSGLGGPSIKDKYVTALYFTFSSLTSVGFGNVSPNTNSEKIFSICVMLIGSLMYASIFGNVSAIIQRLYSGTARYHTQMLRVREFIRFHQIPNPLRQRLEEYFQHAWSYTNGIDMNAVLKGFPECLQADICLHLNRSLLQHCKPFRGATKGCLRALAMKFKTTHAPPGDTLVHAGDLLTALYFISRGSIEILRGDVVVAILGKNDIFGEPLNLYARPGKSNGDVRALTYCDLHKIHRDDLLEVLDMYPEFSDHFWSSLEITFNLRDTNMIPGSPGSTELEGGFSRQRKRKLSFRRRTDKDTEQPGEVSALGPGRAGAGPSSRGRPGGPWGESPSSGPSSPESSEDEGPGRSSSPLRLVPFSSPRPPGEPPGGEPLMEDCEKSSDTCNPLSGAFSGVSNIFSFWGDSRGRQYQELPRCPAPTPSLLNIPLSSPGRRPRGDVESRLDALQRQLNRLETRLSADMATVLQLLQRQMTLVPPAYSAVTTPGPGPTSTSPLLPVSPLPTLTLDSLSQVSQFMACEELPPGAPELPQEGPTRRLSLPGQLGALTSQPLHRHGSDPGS

Row | SMILES | hERG current change (%, negative = inhibition) at 1uM [%]
1 | CCN(CC(=O)Nc1c(F)cccc1F)C(=O)CNC(=O)C1CCCCC1 | 8.44
2 | COc1ccc(-c2nc(C#N)c(NCc3ccccc3Cl)o2)cc1 | 7.91
3 | Cc1ccc2nc(NC(=O)C3CCCN(S(=O)(=O)c4cnc[nH]4)C3)sc2c1 (stereo not shown) | -4.75
4 | COc1cccc(COCC(O)CN2CCC(C(N)=O)CC2)c1 (stereo not shown) | 13.1
5 | Cc1cccc(C)c1NC(=O)CNC(=O)c1ccc(COc2ccccc2)o1 | -0.44
6 | CCOC(=O)c1ccc(NC(=O)CSc2nccn2C)cc1 | 10.6
7 | Cc1cc(C(F)(F)F)nn2cnnc12 | -1.32
8 | COc1ccc(OC)c(Nc2nc(-c3sc(NC(=O)CC(C)C)nc3C)cs2)c1 | 17.6
9 | O=C(c1ccccc1)N1CCN(c2ncnc3c(-c4ccccc4)nsc23)CC1 | 4.11
10 | CSc1nnc(C)c(/C=C/Nc2ccc(F)cc2)n1 | 14.1
11 | CCS(=O)(=O)N1CCN(Cc2c[nH]c3ccccc23)CC1.O=C(O)C(=O)O | 12.3
12 | CCc1nc2ccc(C)cc2c(C(=O)Oc2cccc3cccnc23)c1C | 15.8
13 | COc1cccc(/C=C/C(=O)OCC(=O)Nc2cccc(S(=O)(=O)N3CCOCC3)c2)c1OC | 0.609
14 | COc1ccccc1NC(=O)CCCC(=O)OCC(F)(F)C(F)F | 9.89
15 | CC(C)C(=O)Nc1nnc(SCC(=O)NCc2ccco2)s1 | -5.44
16 | N#CCCSc1nc(N2CCOCC2)c2c(c1C#N)CCCC2 | 6.7
17 | CN1CCN(CCCNC(=O)c2cc3c(-c4ccc(Cl)cc4)nn(C)c3s2)CC1 | 0.447
18 | CC(=O)C1C(c2cccc(F)c2)NC(=O)NC1(O)C(F)(F)F (stereo not shown) | 5.77
19 | Cc1ccc(Nc2nc(N/N=C/c3c[nH]c4ccccc34)nc(N3CCOCC3)n2)cc1 | 3.38
20 | CC(C)NC(=O)C(=O)NCCCN1CCOCC1 | 21.4
21 | CN1CCN(C2CCCCC2NS(=O)(=O)c2ccccc2)CC1 (stereo not shown) | 7.03
22 | Cn1c(=O)oc2cc(S(=O)(=O)NCc3ccncc3)ccc21 | 10.9
23 | Cc1c[n+]([O-])n(-c2ccc(C(=O)O)cc2)n1 | 4.51

Row | SMILES | hERG current change (%, negative = inhibition) at 1uM [%]
24 | O=C(NCCc1ccccc1)c1ccco1 | 4.6
25 | COC(=O)c1c(NC(=O)c2ccc(C)cc2)csc1C | 8.57
26 | NC(=O)Cc1nc(-c2ccc([N+](=O)[O-])cc2)cs1 | 9
27 | CCn1c(C)nc2cc(C(=O)NNS(=O)(=O)c3ccc(C)c(C)c3)ccc21 | 2.45
28 | CCOC(=O)c1cnn(CCOC(=O)c2cccc(F)c2)c1NC(=O)c1cccc(F)c1 | 25.2
29 | O=c1[nH]c2ccccc2c(O)c1-c1ccccc1[N+](=O)[O-] | 19.1
30 | O=C(CN1CCN(c2ccc(Cl)cc2)CC1)Nc1ccc(F)cc1 | -28.1
31 | CC1Cc2ccccc2N1CC(=O)Nc1cccc(S(N)(=O)=O)c1 (stereo not shown) | 6.47
32 | CC(C)NC(=O)c1cccc2c1-c1ccccc1C2=O | 9.42
33 | COC(=O)C1=C(C)NC(C)=C(C(=O)OC)C1C(=O)OC(C)C(=O)c1ccccc1 (stereo not shown) | 4.45
34 | CCN(CC)C(=O)CCn1nc(-c2ccc(C)cc2)c2ccccc2c1=O | -13.5
35 | Cc1cc(S(=O)(=O)NCc2ccccn2)c(Cl)cc1Cl | 10.4
36 | NC(=O)C1CC(=O)N(c2ccc(OCc3ccc(Cl)cc3)cc2)C1 (stereo not shown) | -3.97
37 | Fc1ccc(-c2nc3c(-c4ccc(Cl)cc4)cnn3cc2CCN2CCOCC2)cc1 | 3.56
38 | CCN(CC(=O)Nc1ccc(NC(C)=O)cc1)C(=O)c1ccc2c(c1)OCCO2 | 7.34
39 | Cc1cc(Cl)ccc1OC(C)C(=O)NCCCCc1ccccc1 (stereo not shown) | 7.31
40 | COc1ccc(NC(=O)C(NC(=O)Cc2cccs2)c2ccccc2)cc1 (stereo not shown) | 16.6
41 | COc1cc(OC)c(NC(C)C(=O)N2CCCC2)cc1Cl (stereo not shown) | 14
42 | COc1ccc(/C(C)=N/NC(=O)c2ccncc2)cc1[N+](=O)[O-] | 5.96
43 | Cc1cc(-n2c(C)cc(C(=O)CSc3nnc4sc5ccccc5n34)c2C)no1 | 2.34
44 | CCOc1ccc(OCC(=O)OC(C)C(=O)Nc2ccc(Cl)cn2)cc1 (stereo not shown) | 4.38
45 | N/C(=N\OC(=O)c1cccs1)c1cccc([N+](=O)[O-])c1 | 16.6
46 | CCn1c(=O)n(CC)c2cc(S(N)(=O)=O)ccc21 | -1.8

Row | SMILES | hERG current change (%, negative = inhibition) at 1uM [%]
47 | CCOc1cc(-c2cc(-c3ccc(C)cc3)nc(N)c2C#N)ccc1O | -8.08
48 | CCc1ccc(-n2nnnc2SCC(=O)NNC(=O)c2ccco2)cc1 | 8.49
49 | c1ccc(OCCCCn2cnc3ccccc32)cc1 | -15.1
50 | CC(C)c1ccc(CNc2ncc(Br)cn2)cc1 | 11.6
51 | CCOCCCNS(=O)(=O)c1cc(Br)cc2c1N(C(=O)C1CC1)CC2 | 7.14
52 | CN(C)Cc1nc2ccccc2c(=O)n1Cc1nc(-c2cc3ccccc3o2)cs1 | 9.15
53 | O=C(Cc1cccc(NC(=O)C2CCCN(C(=O)CCc3ccccc3)C2)c1)Nc1cccc(C(=O)N2CCCC2)c1 (stereo not shown) | -4.58
54 | N#CCSc1ccc2nc(-c3ccccc3)cn2n1 | 11.2
55 | CC1(C)C2CCC(C2)C1(C)NC(=O)C[N+](C)(C)C.[Cl-] (stereo not shown) | 11.9
56 | Cc1ccc(CNC(=O)COC(=O)c2cc3c(s2)CCC(C)C3)cc1 (stereo not shown) | 14.3
57 | O=C(NCC1COCCO1)c1cc(COc2c(F)cccc2F)on1 (stereo not shown) | 17.9
58 | Cc1ccc2oc(C(=O)N3CCN(c4cccc(C)n4)CC3)c(C)c2c1 | 15.6
59 | CCOC(=O)CSc1nnc(CNC(=O)c2cccs2)n1-c1cc(OC)ccc1OC | -1.38
60 | Brc1cccc(CNCCc2ccc3c(c2)OCO3)c1.O=C(O)C(=O)O | -0.131
61 | Cc1ccc(NC(=O)CSc2nnc(NC(=O)CN3CCOCC3)s2)cc1 | -1.91
62 | Cc1ccccc1CCNC(=O)C1CCC(=O)N(Cc2ccc(Cl)cc2)C1 (stereo not shown) | -19.6
63 | CC(c1ccccc1)C(CC(=O)O)C(=O)Nc1ccc(Cl)c(Cl)c1 (stereo not shown) | 16.2
64 | CCOC(=O)N1CCN(S(=O)(=O)c2ccc(F)c(C(=O)Nc3cccc(C)c3C)c2)CC1 | 11.2
65 | CS(=O)(=O)c1ccc2nc(NC(=O)CN3CCC(Cc4ccccc4)CC3)sc2c1 | 12.9
66 | CSc1ncccc1C(=O)OCC(=O)Nc1ccc(S(=O)(=O)N2CCCC2)cc1 | 13.5
67 | CC(C)Oc1ccc(CNC(=O)c2cc(S(=O)(=O)N3CCOCC3)cn2C)cc1 | 14.8
68 | O=C(COC(=O)C1(c2ccc(F)cc2)CCCC1)Nc1ncc(C(F)(F)F)cc1Cl | 2.97
69 | COc1cccc(N=CC2=C(O)CCCC2=O)c1 | 1.96

Row | SMILES | hERG current change (%, negative = inhibition) at 1uM [%]
70 | Cc1nc(N2CCC(C)CC2)c2c(C)c(C(=O)Nc3cccc(C(F)(F)F)c3)sc2n1 | 9.18
71 | O=C(NCC1CCCO1)C(c1ccncc1)N(Cc1cccs1)C(=O)Cn1nnc(-c2ccc(F)cc2)n1 (stereo not shown) | -13.7
72 | CCS(=O)(=O)N1CCC(NC(=O)C2CCCCC2)CC1 | 14.4
73 | CCCCNC(=O)C1CCCNC1=O (stereo not shown) | 17.5
74 | Cc1cnnn1-c1ccc(C(=O)CCl)cc1 | 17.2
75 | O=S(=O)(c1ccc(Br)cc1)N1CCCC1 | 5.13
76 | CCOC(=O)c1ccc(NC(=S)N(CCN(C)C)Cc2cccs2)cc1 | 5.35
77 | CN(C)c1cccc(NC(=O)c2cccc3ccccc23)c1 | 13
78 | Cc1ccc(NC(=O)C2COc3ccccc3O2)cc1 (stereo not shown) | 8.23
79 | COc1ccc(NC(=O)c2cc3ccccc3cc2O)cc1 | 12.9
80 | Cc1nnnn1/C(=C\c1ccccc1)C(=O)OCC(=O)N(C)C1CCS(=O)(=O)C1 (stereo not shown) | 13.2
81 | Clc1cccc(OCCn2cncn2)c1Cl | 6.73
82 | CCC1C(=O)Nc2nc(-c3ccccc3)c(-c3ccccc3)n2N=C1C (stereo not shown) | 1
83 | Nc1cc(N)nc(SCCOc2ccccc2F)n1 | 15.5
84 | NC(=O)C(CCC(=O)c1ccc(Br)cc1)S(=O)(=O)c1ccccc1 (stereo not shown) | 0.865
85 | Cc1ccc(NC(=O)CSc2nc3c(c(=O)[nH]2)CCC3)cc1C | -3.15
86 | COc1cccc(OC)c1C(=O)NC(=S)N1CCCCC1c1cccnc1 (stereo not shown) | 11.9
87 | CCOC(=O)N1CCC(Nc2c(NCCN3CCN(c4cccc(Cl)c4)CC3)c(=O)c2=O)CC1 | 2.73
88 | CC(N=C1NC(C)(C)Cc2ccccc21)C(=O)O (stereo not shown) | 5.34
89 | CC(=O)c1ccc(Nc2ccc(-c3ccccc3C)nn2)cc1 | 6.01
90 | Cc1ccc(C2CC(c3cccs3)=NN2C(=O)CSc2nc(=O)n3ccc(C)cc3n2)cc1 (stereo not shown) | -4.83
91 | CS(=O)(=O)N(Cc1ccco1)Cc1ccccc1Cl | 0.357
